# Results reported in PMC4336329 (PLoS ONE, 2015).
# In all, about 310,000 compounds went through this assay and about 2,200 (0.71%) showed an effect of 50% or more. Effects have a minus sign here. This is one part of the list.
# Molecular target: human ether-à-go-go-related gene (hERG) potassium channel (human, UniProt Q12809)
# Assay: primary screen, population patch clamp on CHO cells stably expressing hERG
# Sequence of human ether-à-go-go-related gene (hERG) potassium channel (Q12809 whole entry, looked up): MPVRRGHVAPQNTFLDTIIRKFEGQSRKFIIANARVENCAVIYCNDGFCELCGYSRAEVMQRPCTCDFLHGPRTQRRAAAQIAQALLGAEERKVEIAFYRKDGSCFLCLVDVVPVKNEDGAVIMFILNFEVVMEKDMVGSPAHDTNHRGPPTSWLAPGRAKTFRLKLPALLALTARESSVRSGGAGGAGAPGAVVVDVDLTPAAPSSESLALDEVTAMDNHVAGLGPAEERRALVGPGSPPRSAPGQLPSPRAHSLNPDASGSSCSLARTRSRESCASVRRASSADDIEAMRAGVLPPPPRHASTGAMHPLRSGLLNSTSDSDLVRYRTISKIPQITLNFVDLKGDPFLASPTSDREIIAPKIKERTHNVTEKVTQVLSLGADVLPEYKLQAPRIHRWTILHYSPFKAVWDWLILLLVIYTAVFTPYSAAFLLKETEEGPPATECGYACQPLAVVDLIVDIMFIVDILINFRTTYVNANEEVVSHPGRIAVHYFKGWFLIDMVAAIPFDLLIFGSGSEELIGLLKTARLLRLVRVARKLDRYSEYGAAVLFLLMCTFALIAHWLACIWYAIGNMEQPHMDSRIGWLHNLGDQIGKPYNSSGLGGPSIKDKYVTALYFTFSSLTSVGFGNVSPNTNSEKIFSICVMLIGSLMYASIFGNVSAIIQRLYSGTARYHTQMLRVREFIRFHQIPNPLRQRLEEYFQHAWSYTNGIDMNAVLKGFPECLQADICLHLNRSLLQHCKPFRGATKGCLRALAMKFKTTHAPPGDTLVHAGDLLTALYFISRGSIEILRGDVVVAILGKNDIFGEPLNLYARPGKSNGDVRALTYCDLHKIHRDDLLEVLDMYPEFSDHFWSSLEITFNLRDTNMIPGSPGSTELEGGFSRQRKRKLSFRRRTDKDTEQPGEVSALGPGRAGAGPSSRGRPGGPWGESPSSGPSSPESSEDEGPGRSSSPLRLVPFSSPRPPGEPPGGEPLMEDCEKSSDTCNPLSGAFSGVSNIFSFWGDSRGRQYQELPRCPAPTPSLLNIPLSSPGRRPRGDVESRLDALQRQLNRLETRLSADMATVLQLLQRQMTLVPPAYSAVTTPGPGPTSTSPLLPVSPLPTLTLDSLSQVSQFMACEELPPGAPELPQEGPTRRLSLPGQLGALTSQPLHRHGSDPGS
row,Compound,"hERG current change (%, negative = inhibition) at 1uM"
1,OCCNc1nc(Nc2ccccc2)nc(Nc2ccccc2)n1,1.91%
2,COc1ccc(F)c(CN2CCCC(CO)(Cc3cccc(Cl)c3)C2)c1 (stereo not drawn),11.8%
3,Cn1c(O)c(C=NCCCCCCCCCCC(=O)O)c(=O)n(C)c1=O,11%
4,COc1cccc(C2=CC(c3ccc(N(C)C)cc3)n3nnnc3N2)c1 (stereo not drawn),15.7%
5,Cc1cc(C)c2c(=O)c(C#N)coc2c1,0.604%
6,COc1ccc(-n2nc3c(c2NC(=O)COc2ccccc2F)CS(=O)(=O)C3)cc1,2.02%
7,Cc1cccc(Nc2nnc(SCC3CCCCO3)s2)c1C (stereo not drawn),-4.03%
8,COC(=O)CC1C(C(=O)OC)ON2OC(C(=O)OC)C(C(=O)OC)C12 (stereo not drawn),10.4%
9,CCSc1nc(O)c(C(c2cccc(OC)c2)c2c(O)nc(SCC)[nH]c2=O)c(=O)[nH]1,10.4%
10,FC(F)(F)c1cc(-c2cccs2)nc(N2CCOCC2)n1,14.2%
11,CCOc1ccc2nc(NC(=O)c3cccnc3)sc2c1,13.8%
12,COC(=O)C1=C(C)N(C)C(=O)/C1=C\c1ccco1,12.5%
13,COc1ccccc1Nc1nc(N)nc(-c2cc3ccccc3o2)n1,24.8%
14,Cc1cccc(NC(=O)c2ccc(S(=O)(=O)N3CCN(C)CC3)cc2)c1C,6.26%
15,Cc1ccc(-n2nc3cc(C)c(NC(=O)c4cccnc4)cc3n2)cc1,6.99%
16,COc1ccc(S(=O)(=O)N2CCOC2CNC(=O)C(=O)NCCCc2ccccc2)cc1 (stereo not drawn),-8.65%
17,O=C(Nc1ccc(Cl)cc1)[C@@H]1[C@@H]2C(=O)N(c3ccc(Cl)cc3)C(=O)[C@@H]2[C@H]2C=CC=NN21,0.701%
18,CCOc1ccc(NC(=O)CN(c2ccc(OC)cc2)S(=O)(=O)c2cccs2)cc1,2.87%
19,CC(C)CC1Nc2ncnc(N3CCOCC3)c2N(Cc2ccc(Br)cc2)C1=O.O=C(O)C(F)(F)F (stereo not drawn),9.91%
20,O=C(CNS(=O)(=O)c1ccc(F)cc1)N1CCCC1,8.95%
21,Cc1ccsc1/C=C/C1=Cc2c(sc(NC(=O)CSc3n[nH]c(N)n3)c2C#N)C(C)(C)C1,7.37%

row,Compound,"hERG current change (%, negative = inhibition) at 1uM"
1,Cc1c(NC(=O)CN2C(=O)c3ccccc3S2(=O)=O)c(=O)n(-c2ccccc2)n1C,6.5%
2,O=C(Nc1nc2c(F)cc(F)cc2s1)C1CC(=O)N(Cc2ccco2)C1 (stereo not drawn),0.707%
3,CC(C)(C)C(=O)/C=C/c1ccc(Oc2ccccc2)cc1,11.9%
4,O=C(O)/C(=C\c1c(C(=O)O)[nH]c2cc(Cl)cc(Cl)c12)c1ccccc1,13.4%
5,O=C(O)c1cc(-c2ccc(/C=N/NC(=S)Nc3ccccc3)o2)ccc1Cl,5.46%
6,COc1ccccc1NC(=O)c1ccc(Cl)c(S(=O)(=O)N2CCOCC2)c1,3.63%
7,CN1C(=O)NC(=O)/C(=C/c2ccc(C(=O)O)cc2)C1=O,5.5%
8,Cc1ccc(/C=N/NC(=O)c2ccc3c(c2)OCCO3)s1,10.5%
9,Cc1cc(/C=C2/NC(=O)N(c3ccccc3)C2=O)c(C)n1-c1cccnc1,9.45%
10,CC(C)COc1cccc(-c2cc(C(=O)N/N=C/c3ccncc3)c3ccccc3n2)c1,8.04%
11,COc1cc(C#N)ccc1OC(=O)Cc1cc(OC)c(OC)c(OC)c1,5.98%
12,Cc1cccc(C)c1-n1c(C)cc(/C=N\NC(=O)CC(=O)NC2CCCCC2)c1C,13%
13,Cc1ccccc1Sc1ccc(N)cn1,12.1%
14,CCOc1ccccc1OCC(=O)Nc1ccc(N2CCCCC2)cc1,10.3%
15,COc1ccc(NC(=O)CN(C)C(=O)c2ccc(COc3ccccc3)o2)cc1,4.2%
16,O=C(NC1CCCCC1)C(Cc1ccccc1)N1C(=O)C2C3CCC(C3)C2C1=O (stereo not drawn),6.24%
17,Cc1cncn1CCc1nc2c3ccccc3nc(SCC(=O)Nc3cccc(Cl)c3)n2n1,-5.37%
18,COc1cc(NC(C)CCCN)c2ncccc2c1Oc1ccccc1.O=C(O)CCC(=O)O (stereo not drawn),2.23%
19,COc1ccc(OC)c(/C=N/N(C)c2ccccc2)c1,12.4%
20,COc1ccc(N2C(N)=C(C#N)C(c3ccsc3)C3=C2CCCC3=O)c(OC)c1 (stereo not drawn),6.88%
21,CC(C)NC(=O)C1(O)c2ccccc2NC(=O)N1c1ccc(Cl)c(Cl)c1 (stereo not drawn),13.8%
